This is an account of results in the supplement of paper PMC4604168 (melanoma cell lines).

Molecules are shown by their SMILES. This is one part of the list. Repeats are few or missing, and single values can be far off.
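Further: cell number obtained by counting DAPI-stained nuclei in high-throughput microscope images with image analysis software, screen run in 1,536-well plates.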

This assay deals with A101D. Kind of assay: cell count relative to DMSO control; melanoma cells; higher = more viable cells. To be noted: library dose: low library concentration; 72 h.
With `Cn1cnc2c(F)c(Nc3ccc(Br)cc3Cl)c(C(=O)NOCCO)cc21` [selumetinib] + COc1ccc(C2=N[C@@H](c3ccc(Cl)cc3)[C@@H](c3ccc(Cl)cc3)N2C(=O)N2CCNC(=O)C2)c(OC(C)C)c1 [Nutlin-3] (first compound 0.015 µM, partner dose 0.1 µM), the cell count was found to be 82.5%.

The molecule `C[C@]1(O)C[C@@H](c2nc(-c3ccc4ccc(-c5ccccc5)nc4c3)c3c(N)nccn32)C1` + CN(c1ncccc1CNc1nc(Nc2ccc3c(c2)CC(=O)N3)ncc1C(F)(F)F)S(C)(=O)=O [PF562271] (first compound 0.4 µM, partner dose 0.08 µM) showed a cell count of 91.2%. In the case of `CCN(CC)CCNC(=O)c1c(C)[nH]c(/C=C2\C(=O)Nc3ccc(F)cc32)c1C` [sunitinib] + CC(=O)c1c(C)c2cnc(Nc3ccc(N4CCNCC4)cn3)nc2n(C2CCCC2)c1=O [palbociclib] (first compound 0.4 µM, partner dose 0.04 µM), the cell count is 86.7%.

For the molecule `C[C@]1(O)C[C@@H](c2nc(-c3ccc4ccc(-c5ccccc5)nc4c3)c3c(N)nccn32)C1` + CNC(=O)c1cc(Oc2ccc(NC(=O)Nc3ccc(Cl)c(C(F)(F)F)c3)cc2)ccn1 [sorafenib] (first compound 0.4 µM, partner dose 0.4 µM), the cell count came to 91.4%. With `Cn1cnc2c(F)c(Nc3ccc(Br)cc3Cl)c(C(=O)NOCCO)cc21` [selumetinib] + COc1ccc(Cl)c(Nc2nc3ccccc3nc2NS(=O)(=O)c2cccc(NC(=O)C(C)(C)N)c2)c1 [XL147] (first compound 0.015 µM, partner dose 0.8 µM), the cell count worked out at 92%. Turning to `Cn1cnc2c(F)c(Nc3ccc(Br)cc3Cl)c(C(=O)NOCCO)cc21` [selumetinib] + CN(c1ncccc1CNc1nc(Nc2ccc3c(c2)CC(=O)N3)ncc1C(F)(F)F)S(C)(=O)=O [PF562271] (first compound 0.015 µM, partner dose 0.08 µM), the cell count turned out to be 90.6%. `C[C@]1(O)C[C@@H](c2nc(-c3ccc4ccc(-c5ccccc5)nc4c3)c3c(N)nccn32)C1` + CCCCCCCCc1ccc(CCC(N)(CO)CO)cc1 [fingolimod] (first compound 0.4 µM, partner dose 2 µM): the cell count was determined as 83.8%. `Cn1cnc2c(F)c(Nc3ccc(Br)cc3Cl)c(C(=O)NOCCO)cc21` [selumetinib] + CCCCCCCCc1ccc(CCC(N)(CO)CO)cc1 [fingolimod] (first compound 0.015 µM, partner dose 2 µM) came in with a cell count of 83.2%. For the molecule `CCN(CC)CCNC(=O)c1c(C)[nH]c(/C=C2\C(=O)Nc3ccc(F)cc32)c1C` [sunitinib] + CN1CCN(c2ccc3nc(-c4c(N)c5c(F)cccc5[nH]c4=O)[nH]c3c2)CC1 [Dovitinib] (first compound 0.4 µM, partner dose 0.1 µM), the cell count turned out to be 80.5%.

Take `Cn1cnc2c(F)c(Nc3ccc(Br)cc3Cl)c(C(=O)NOCCO)cc21` [selumetinib] + Cn1c(Nc2ccc(C(F)(F)F)cc2)nc2cc(Oc3ccnc(-c4ncc(C(F)(F)F)[nH]4)c3)ccc21 [CHIR265] (first compound 0.015 µM, partner dose 0.08 µM): the cell count was 56%. For `COc1cc([C@@H]2c3cc4c(cc3[C@@H](O[C@@H]3O[C@@H]5CO[C@@H](C)O[C@H]5[C@H](O)[C@H]3O)[C@H]3COC(=O)[C@H]23)OCO4)cc(OC)c1O` [etoposide] + O=C(Nc1cc(C(F)(F)F)cc(C(F)(F)F)c1)c1cc(Cl)ccc1O [IMD0354] (first compound 0.02 µM, partner dose 0.016 µM) the value was 101%; for `CCN(CC)CCNC(=O)c1c(C)[nH]c(/C=C2\C(=O)Nc3ccc(F)cc32)c1C` [sunitinib] + CC(=O)O[C@@]12CO[C@@H]1C[C@H](O)[C@@]1(C)C(=O)[C@H](O)C3=C(C)[C@@H](OC(=O)[C@H](O)[C@@H](NC(=O)OC(C)(C)C)c4ccccc4)C[C@@](O)([C@@H](OC(=O)c4ccccc4)[C@H]21)C3(C)C [Docetaxel] (first compound 0.4 µM, partner dose 0.0001 µM), 71.5%. In turn, `C[C@]1(O)C[C@@H](c2nc(-c3ccc4ccc(-c5ccccc5)nc4c3)c3c(N)nccn32)C1` + CN1CCN(c2ccc3nc(-c4c(N)c5c(F)cccc5[nH]c4=O)[nH]c3c2)CC1 [Dovitinib] (first compound 0.4 µM, partner dose 0.1 µM) showed a cell count of 106%.

Regarding `C[C@]1(O)C[C@@H](c2nc(-c3ccc4ccc(-c5ccccc5)nc4c3)c3c(N)nccn32)C1` + CC(C)C[C@H](NC(=O)[C@H](Cc1ccccc1)NC(=O)c1cnccn1)B(O)O [Bortezomib] (first compound 0.4 µM, partner dose 0.001 µM), the cell count turned out to be 54.2%.
